# The list shows a part of the results. Values were computed here from the reads of four pooled replicates and scatter widely.
# Target: T1, Pho4 (S. cerevisiae) (UniProt P07270)
# T1 sequence: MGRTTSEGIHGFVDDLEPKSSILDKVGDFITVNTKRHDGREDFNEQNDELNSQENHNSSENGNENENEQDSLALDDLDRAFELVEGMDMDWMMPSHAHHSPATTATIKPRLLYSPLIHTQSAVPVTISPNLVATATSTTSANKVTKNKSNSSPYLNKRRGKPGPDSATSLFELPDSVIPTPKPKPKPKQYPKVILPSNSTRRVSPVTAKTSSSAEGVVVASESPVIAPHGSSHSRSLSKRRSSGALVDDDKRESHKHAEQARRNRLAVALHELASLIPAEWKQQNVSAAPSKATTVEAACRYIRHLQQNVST
# Test: relative binding free energy (BET-seq); higher = weaker binding
# Settings: reference: library average
row,Sequence,relative binding free energy [kcal/mol]
1,TGTATCACGTGATGGT,0.28
2,ATTGGCACGTGCAAGT,-0.16
3,GTTTGCACGTGTCAGG,0.04
4,TTATTCACGTGTGATC,0.32
5,TAGTGCACGTGGGGTT,-0.14
6,GGGGACACGTGGATCT,0.1
7,ATGTGCACGTGTTTGA,-0.09
8,GGGGCCACGTGGAGAG,-0.08
9,CTTTACACGTGTTATA,0.1
10,GCTGTCACGTGTGCTT,0.22
11,CTATTCACGTGATAGT,0.21
12,TCAGTCACGTGTTAGG,0.06
13,GTGTTCACGTGTGGTC,0.27
14,TGGCGCACGTGTTTGC,-0.1
15,AGGTGCACGTGGTTAT,-0.13
16,GGTAGCACGTGGGTCA,-0.26
17,GTTGGCACGTGGTGCG,-0.15
18,ATTAGCACGTGTTCTG,-0.12
19,GAGAACACGTGTTATG,0.18
20,GACTTCACGTGAGTGT,0.49
21,GTTATCACGTGGCGGG,0.09
22,ATTGGCACGTGTACGA,-0.12
23,TGGTTCACGTGAATAG,0.38

row,Sequence,relative binding free energy [kcal/mol]
1,TTGTTCACGTGGGTGT,0.25
2,TAGGACACGTGTACTG,0.11
3,CATTTCACGTGGTTAA,0.27
4,GATTACACGTGGGTAT,0.09
5,AGGGGCACGTGAGCTG,0.24
6,ATGGGCACGTGGTTAG,-0.26
7,TGTTGCACGTGGGGTC,-0.1
8,CTGTGCACGTGGAAGT,-0.18
9,AGTATCACGTGAGTAG,0.28
10,GAGAGCACGTGGCGGT,-0.22
11,GGCGTCACGTGAATTT,0.31
12,ATTTGCACGTGGTCAT,0
13,TGATGCACGTGTGATC,0.05
14,TATGGCACGTGAAGGC,0.28
15,GTTTGCACGTGTGTTG,0.04
16,CTGTGCACGTGGCGTT,-0.17
17,TTCGTCACGTGAAGAT,0.33
18,AAAGGCACGTGGCGGG,-0.12
19,TGCTGCACGTGTGAAT,0.09
20,ATCGTCACGTGTGTGA,0.22
21,TGGGGCACGTGCTGTG,-0.17
22,GTTCTCACGTGTGATT,0.36
23,GCTCGCACGTGGTGGG,-0.05

row,Sequence,relative binding free energy [kcal/mol]
1,ATGTGCACGTGTTATT,-0.11
2,TGGGGCACGTGGACGC,-0.18
3,CTATGCACGTGTGGTC,0.01
4,CATATCACGTGGTAGT,0.06
5,AGGTTCACGTGTTGCA,0.17
6,TTAAGCACGTGAGTAG,0.15
7,ATGAGCACGTGGGGTC,-0.24
8,AGACGCACGTGACGGG,0.1
9,CTGGTCACGTGAGTCA,0.36
10,GAGCACACGTGTGTGG,0.14
11,AATTGCACGTGGGTAG,-0.15
12,AGTATCACGTGCGGTG,0.09
13,GGTAACACGTGTTAGA,-0.12
14,GAGGTCACGTGTAAGT,0.15
15,ATATACACGTGGCGTT,-0.14
16,TGGCTCACGTGGTTAT,0.22
17,TTGTGCACGTGCATAT,-0.22
18,AATTGCACGTGTGACT,0.14
19,TCAGGCACGTGAATGG,0.18
20,ACTAGCACGTGTGGGT,-0.13
21,GGTCGCACGTGTAGAG,0.01
22,TGCGTCACGTGTGTAA,0.11
23,ATTAACACGTGTGCAG,0.09

row,Sequence,relative binding free energy [kcal/mol]
1,GATGGCACGTGATAGT,0
2,GGCTACACGTGGGTGG,0.03
3,TGTGTCACGTGTCGAT,0.1
4,TAGTGCACGTGGGCGC,-0.18
5,TAGGGCACGTGAGACT,0.1
6,ATGGTCACGTGGGGGT,-0.01
7,GTTAACACGTGTTCGG,0.11
8,TCTTACACGTGCGTGT,-0.01
9,TGTTACACGTGGGCGG,0.03
10,ACTTGCACGTGATTTG,0.06
11,CGGGGCACGTGGGGCA,-0.23
12,TGCGTCACGTGAGTTT,0.33
13,GGTATCACGTGGCTGT,0.09
14,GGCGGCACGTGAGGCT,0.03
15,TTGTTCACGTGCGGTT,0.25
16,CTGTTCACGTGAGGTT,0.39
17,AATGTCACGTGTGTGT,0.12
18,TAGTACACGTGTGCGG,0.04
19,GCATTCACGTGGGCTT,0.3
20,TATTTCACGTGAGGTC,0.32
21,GTTAACACGTGATGGG,0.2
22,GTCGTCACGTGGAGTT,0.21
23,GTAGACACGTGTTGGG,0.08

row,Sequence,relative binding free energy [kcal/mol]
1,TGTGTCACGTGCGGGT,-0.03
2,GAGCGCACGTGGCTGG,-0.19
3,GCGGTCACGTGGGAGT,-0.07
4,TACTTCACGTGTCAGG,0.46
5,GGAGGCACGTGTTGTC,-0.1
6,GTTTCCACGTGAATGG,0.35
7,GCAGTCACGTGAGGTT,0.5
8,TTAATCACGTGGATTC,0.26
9,TATCACACGTGGAGTT,0.12
10,GTTATCACGTGGGCGA,-0.02
11,GGGGGCACGTGACTAT,0.03
12,GAGGTCACGTGGCTTT,0.02
13,GGTAGCACGTGTAGGA,0.04
14,TTTGACACGTGACGGT,0.12
15,TGGATCACGTGGTCTA,0.02
16,ATGGACACGTGAGAAT,0.37
17,TGGTACACGTGATGGC,0.19
18,TAGGACACGTGCTTGT,0.11
19,ATTGACACGTGTAAGA,0.17
20,AAGGTCACGTGAGGGA,0.27
21,TATTTCACGTGAGGAC,0.37
22,GCTATCACGTGTAGGT,0.34
23,GAGTTCACGTGGCTGT,0.34

# Reference: the BET-seq Pho4 binding data (Le et al. 2018)
